Measurements: PubChem BioAssay (NCATS)
“And” between values parts separate entries of the source, which are not always exact repeats. Equal values may be shown once. Inconclusive results, whose numbers are uncertain, are shown with a selection of clear calls. The source made the active and inactive calls. Calls come from the whole dose curve; as a rule, active = well fitted curve in either direction with a large enough effect (not every such curve was filed as active); inconclusive = small, poorly fitted or top-dose-only effect, or another doubt; inactive = flat fitted curve, though single readings scatter.

Experiment: AP1 Signaling Pathway (AID 357);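 note: ME-180 reporter cells stimulated with EGF at its EC50 level; top concentration of the series differs between compounds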
Conditions: ME-180 (cervical carcinoma) AP-1-bla reporter, EGF-induced, beta-lactamase ratio, 5 h; at 17.2 µM (top of the series) unless noted
Outline: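 Modulation of EGF-driven AP-1 transcription was assessed with a beta-lactamase reporter in ME-180 cells. Compound and EC50 EGF were co-incubated 5 hours at 37 °C before 2.5-hour CCF4 loading at room temperature and dual-emission reading.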
% is set by controls: 0 for no effect and ±100 for the full control effect.

| Structure (SMILES) | activity change, negative = inhibition |
| --- | --- |
| Nc1ncn([C@H]2O[C@@H](CO)[C@@H](O)[C@@H]2O)c(=O)n1 | inconclusive: -30.4% [inhibitor] |
| Cn1c(NCC(O)c2ccccc2)nc2c1c(=O)n(Cc1ccc(Cl)c(Cl)c1)c(=O)n2C (stereo not given) | inconclusive: -63.2% [inhibitor] |
| CCCCc1ccc(NC(=O)CSC2=C(C#N)C(c3ccco3)C3=C(CCCC3=O)N2)cc1 (stereo not given) | inconclusive: -33.8% [inhibitor] |
| CSc1nc2[nH]c3c(c2c2ncnn12)CCCC3 | inconclusive: -33.3% [inhibitor] |
| CCSC1=C(C#N)C(c2cccs2)C(C(=O)OC)=C(C)N1 (stereo not given) | inconclusive: -32.4% [inhibitor] |
| CCNc1ncc2nc(-c3cccs3)c(=O)n(Cc3ccc(F)cc3)c2n1 | inactive: 24.9% [at 7.69 µM] |
| CCCC[S@@](=N)(=O)CC[C@@H](N)C(=O)O | inactive: 3.63% [at 38 µM] and inactive: -2.23% [at 38 µM] |
| COc1ccccc1-c1nn2c(-c3ccc(C(C)(C)C)cc3)nnc2s1 | inconclusive: 35.8% [activator] |
| O=C(O)c1cc2cccc(S(=O)(=O)N3CCOCC3)c2cc1O | inactive: 7.94% |
| COc1ccc(C2C=C(c3ccc(Cl)cc3)Nc3nc(NC(C)=O)nn32)cc1 (stereo not given) | inactive: -15.6% |
| CCOC(=O)/C=c1\s/c(=C(\C#N)C(=O)OCC)n(-c2ccccc2)c1=O | inactive: 2.08% |
| c1ccc2c(c1)[nH]c1c(N3CCC4(CC3)OCCO4)ncnc12 | inactive: -1.63% |
| COc1cccc(-c2ccc3ncnc(NCc4cccnc4)c3c2)c1 | inconclusive: -48.7% [inhibitor] [at 7.69 µM] |
| CC(=O)N1CCC2(CC1)CN(c1ccncc1)C2 | inactive: -4.3% [at 7.69 µM] |
| CCOC(=O)CSc1nc(N)c(C(=O)Nc2ccc(N(C)C)cc2)s1 | inconclusive: -41.3% [inhibitor] |
| Cc1noc(C)c1C(=O)N1CCC2(CCCN(C(c3ccccc3)c3ccccc3)C2)CC1 | inconclusive: 54.8% [activator] [at 7.69 µM] |
| CNC(=O)Nc1cccc(NC(=O)NC)n1 | inactive: 13% |
| O=c1c(-c2ccc(Cl)cc2)nc2cncnc2n1Cc1ccc(F)cc1 | inconclusive: 31.2% [activator] [at 7.69 µM] |
| CCOC(=O)c1[nH]c2ccc(Br)cc2c1NC(=O)CCN1CCC(C(=O)OCC)CC1 | inconclusive: -35.2% [inhibitor] |
| Cc1coc2c(O)cc3c(c12)OC1(N2CCCCC2)C(=O)NCCCC31 (stereo not given) | inconclusive: 56.9% [activator] |

| Structure (SMILES) | activity change, negative = inhibition |
| --- | --- |
| NC(=O)NCCS[C@H]1CCCC[C@@H]1O | inactive: 3.84% [at 7.69 µM] |
| C#CCN1C(C)=C(C(=O)OC)[C@@H](c2cccc([N+](=O)[O-])c2)C(C(=O)OCC)=C1C | inconclusive: -31.5% [inhibitor] [at 38 µM] |
| Fc1ccccc1-c1nc(N2CCCCC2)c2ccccc2n1 | inconclusive: -35.6% [inhibitor] |
| Cc1c(CCC#N)c(N2CCN(C3CCCCC3)CC2)n2c(nc3ccccc32)c1C#N | inactive: -16.9% |
| CC(=Nc1cccc(O)c1)c1sc2ccccc2c1O | inconclusive: -47.5% [inhibitor] |
| CC(=O)N1CCC2(CC1)CN(c1ccccc1)C2 | inactive: 10.4% [at 7.69 µM] |
| CN(C)/N=N\c1nc[nH]c1C(N)=O | inactive: 5.94% |
| CCOC(=O)CC(=O)CSc1nc(N)c(C#N)c(-c2ccc(Cl)cc2)c1C#N | inconclusive: -39.6% [inhibitor] |
| Cc1ccc(Cn2ncc3c(N4CCOCC4)ncnc32)cc1 | inactive: -2.95% |
| CN(Cc1ccccc1)c1ncnc2ccc(Br)cc12 | inconclusive: -50.9% [inhibitor] |
| CN(C)CCCn1c2c3ccccc3ccc2c2oc(=O)c3ccccc3c21 | inconclusive: 34.6% [activator] [at 7.69 µM] |
| COc1ccc(CCn2c(C)cc3c(c2=O)C(c2ccc4c(c2)OCO4)C(C#N)=C(N)O3)cc1OC (stereo not given) | inconclusive: -45.8% [inhibitor] |
| Cc1cccc(C)c1OCC(=O)Nc1cccc(-c2nnc(-c3ccccc3)o2)c1 | inconclusive: -43.9% [inhibitor] |
| Cc1ccc2[nH]c3c(c2c1)CN(C(=O)CN1CCCc2ccccc21)CC3 | inactive: -22.5% |
| COc1cccc(Cn2c(=O)c(-c3cccs3)nc3cnc(OC)nc32)c1 | inconclusive: 40.2% [activator] [at 7.69 µM] |
| O=C(O)CCc1cc(I)c(Oc2ccc(O)c(I)c2)c(I)c1 | inconclusive: -37.8% [inhibitor] |
| Cc1cccc(CNc2ncnc3ccc(-c4cccnc4)cc23)c1 | inconclusive: -111% [inhibitor] [at 7.69 µM] |
| COc1ccc(Oc2ncc3nc(-c4cccs4)c(=O)n(Cc4cccc(OC)c4)c3n2)cc1 | inconclusive: 44.3% [activator] [at 7.69 µM] |
| CC[C@]1(O)C[C@H]2CN(CCc3c([nH]c4ccccc34)[C@](C(=O)OC)(c3cc4c(cc3OC)N(C=O)[C@H]3[C@@](O)(C(=O)OC)[C@H](OC(C)=O)[C@@]5(CC)C=CCN6CC[C@]43[C@H]65)C2)C1 | inconclusive: 47.9% [activator] [at 38 µM] |
| C[C@@]1(CO)[C@H](O)CC[C@]2(C)[C@@H]1CC[C@H]1C[C@H]3C[C@]12CC[C@]3(O)COC(=O)CN | inactive: 5.13% [at 7.69 µM] |
